Substitutions are numbered along the chain they refer to; changes in the protein carry UniProt numbers. This is one part of the list.
T1: RBFOX1 RRM RbFoxmut (Fox-RRM*) (Homo sapiens, UniProt Q9NWB1 109-208, R118D;E147R;N151S;E152T)
T1 sequence: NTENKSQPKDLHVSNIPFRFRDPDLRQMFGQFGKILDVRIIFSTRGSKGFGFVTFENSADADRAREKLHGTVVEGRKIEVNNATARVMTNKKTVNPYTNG

B1: AAAAAGC (DNA:RNA)
RNA: GGGAGACCGGAAUUCAGAUUGUCCAAAAAGCUUAAAUCCCGUCGUAGCCACCA
DNA 1: CAATCTGAATTCCGGTCTCCC
DNA 2: TGGTGGCTACGACGGGATT
B2: GCCCACC (DNA:RNA)
RNA: B1 RNA with A25G, A26C, A27C, A28C, G30C
DNA 1: CAATCTGAATTCCGGTCTCCC
DNA 2: TGGTGGCTACGACGGGATT
B3: CUUUAUG (DNA:RNA)
RNA: B1 RNA with A25C, A26U, A27U, A28U, G30U, C31G
DNA 1: CAATCTGAATTCCGGTCTCCC
DNA 2: TGGTGGCTACGACGGGATT
B4: UGGGCCU (DNA:RNA)
RNA: GGGAGACCGGAAUUCAGAUUGUCCUGGGCCUUUAAAUCCCGUCGUAGCCACCA
DNA 1: CAATCTGAATTCCGGTCTCCC
DNA 2: TGGTGGCTACGACGGGATT
B5: CCGGGUU (DNA:RNA)
RNA: B4 RNA with U25C, G26C, C29G, C30U
DNA 1: CAATCTGAATTCCGGTCTCCC
DNA 2: TGGTGGCTACGACGGGATT
B6: GCAGUUG (DNA:RNA)
RNA: B1 RNA with A25G, A26C, A28G, A29U, G30U, C31G
DNA 1: CAATCTGAATTCCGGTCTCCC
DNA 2: TGGTGGCTACGACGGGATT
B7: CAUCGAG (DNA:RNA)
RNA: B1 RNA with A25C, A27U, A28C, A29G, G30A, C31G
DNA 1: CAATCTGAATTCCGGTCTCCC
DNA 2: TGGTGGCTACGACGGGATT
B8: CUAGCCU (DNA:RNA)
RNA: B4 RNA with U25C, G26U, G27A
DNA 1: CAATCTGAATTCCGGTCTCCC
DNA 2: TGGTGGCTACGACGGGATT
B9: GACAAGA (DNA:RNA)
RNA: B1 RNA with A25G, A27C, C31A
DNA 1: CAATCTGAATTCCGGTCTCCC
DNA 2: TGGTGGCTACGACGGGATT
B10: CCGUAGU (DNA:RNA)
RNA: B1 RNA with A25C, A26C, A27G, A28U, C31U
DNA 1: CAATCTGAATTCCGGTCTCCC
DNA 2: TGGTGGCTACGACGGGATT
B11: CCCGCUU (DNA:RNA)
RNA: B4 RNA with U25C, G26C, G27C, C30U
DNA 1: CAATCTGAATTCCGGTCTCCC
DNA 2: TGGTGGCTACGACGGGATT
B12: AGCUGAG (DNA:RNA)
RNA: B1 RNA with A26G, A27C, A28U, A29G, G30A, C31G
DNA 1: CAATCTGAATTCCGGTCTCCC
DNA 2: TGGTGGCTACGACGGGATT
B13: CAGGCUA (DNA:RNA)
RNA: B4 RNA with U25C, G26A, C30U, U31A
DNA 1: CAATCTGAATTCCGGTCTCCC
DNA 2: TGGTGGCTACGACGGGATT
B14: CGUGAUC (DNA:RNA)
RNA: B1 RNA with A25C, A26G, A27U, A28G, G30U
DNA 1: CAATCTGAATTCCGGTCTCCC
DNA 2: TGGTGGCTACGACGGGATT
B15: UAAACAG (DNA:RNA)
RNA: B1 RNA with A25U, A29C, G30A, C31G
DNA 1: CAATCTGAATTCCGGTCTCCC
DNA 2: TGGTGGCTACGACGGGATT
B16: CCCGAAA (DNA:RNA)
RNA: B1 RNA with A25C, A26C, A27C, A28G, G30A, C31A
DNA 1: CAATCTGAATTCCGGTCTCCC
DNA 2: TGGTGGCTACGACGGGATT
B17: UUAUGAA (DNA:RNA)
RNA: B1 RNA with A25U, A26U, A28U, A29G, G30A, C31A
DNA 1: CAATCTGAATTCCGGTCTCCC
DNA 2: TGGTGGCTACGACGGGATT
B18: GUAGCUU (DNA:RNA)
RNA: B4 RNA with U25G, G26U, G27A, C30U
DNA 1: CAATCTGAATTCCGGTCTCCC
DNA 2: TGGTGGCTACGACGGGATT
B19: UGGUCAC (DNA:RNA)
RNA: B4 RNA with G28U, C30A, U31C
DNA 1: CAATCTGAATTCCGGTCTCCC
DNA 2: TGGTGGCTACGACGGGATT
B20: ACACUUU (DNA:RNA)
RNA: B1 RNA with A26C, A28C, A29U, G30U, C31U
DNA 1: CAATCTGAATTCCGGTCTCCC
DNA 2: TGGTGGCTACGACGGGATT
B21: UGAACGC (DNA:RNA)
RNA: B1 RNA with A25U, A26G, A29C
DNA 1: CAATCTGAATTCCGGTCTCCC
DNA 2: TGGTGGCTACGACGGGATT
B22: AUCCGAU (DNA:RNA)
RNA: B1 RNA with A26U, A27C, A28C, A29G, G30A, C31U
DNA 1: CAATCTGAATTCCGGTCTCCC
DNA 2: TGGTGGCTACGACGGGATT
B23: GGGCGUU (DNA:RNA)
RNA: B4 RNA with U25G, G28C, C29G, C30U
DNA 1: CAATCTGAATTCCGGTCTCCC
DNA 2: TGGTGGCTACGACGGGATT
B24: ACGUAUU (DNA:RNA)
RNA: B1 RNA with A26C, A27G, A28U, G30U, C31U
DNA 1: CAATCTGAATTCCGGTCTCCC
DNA 2: TGGTGGCTACGACGGGATT
B25: GCUUACG (DNA:RNA)
RNA: B1 RNA with A25G, A26C, A27U, A28U, G30C, C31G
DNA 1: CAATCTGAATTCCGGTCTCCC
DNA 2: TGGTGGCTACGACGGGATT
B26: GACUCGA (DNA:RNA)
RNA: B1 RNA with A25G, A27C, A28U, A29C, C31A
DNA 1: CAATCTGAATTCCGGTCTCCC
DNA 2: TGGTGGCTACGACGGGATT
B27: CUACUUC (DNA:RNA)
RNA: B1 RNA with A25C, A26U, A28C, A29U, G30U
DNA 1: CAATCTGAATTCCGGTCTCCC
DNA 2: TGGTGGCTACGACGGGATT
B28: CUCGUGU (DNA:RNA)
RNA: B4 RNA with U25C, G26U, G27C, C29U, C30G
DNA 1: CAATCTGAATTCCGGTCTCCC
DNA 2: TGGTGGCTACGACGGGATT
B29: GUCAAUU (DNA:RNA)
RNA: B1 RNA with A25G, A26U, A27C, G30U, C31U
DNA 1: CAATCTGAATTCCGGTCTCCC
DNA 2: TGGTGGCTACGACGGGATT
B30: ACGCGGC (DNA:RNA)
RNA: B1 RNA with A26C, A27G, A28C, A29G
DNA 1: CAATCTGAATTCCGGTCTCCC
DNA 2: TGGTGGCTACGACGGGATT
B31: CGCCUAA (DNA:RNA)
RNA: B4 RNA with U25C, G27C, G28C, C29U, C30A, U31A
DNA 1: CAATCTGAATTCCGGTCTCCC
DNA 2: TGGTGGCTACGACGGGATT

The binders below were run against T1, RBFOX1 RRM RbFoxmut (Fox-RRM*) (assay: EMSA; HiTS-Eq, 1 nM pool, 10 min; buffer printed only for the single-RNA assays: 10 mM Tris pH 7.5, 150 mM NaCl, 3.4 mM EDTA, 0.001% NP-40, 30 C). Details: tags: His6 N-terminal (pET28a); label: 5' 32P.
Method in brief: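 Purified wild-type or mutant RbFox RRM at increasing concentrations was equilibrated with 1 nM of 5′-radiolabelled RNA carrying 7 randomized nucleotides for 10 min in 50 µL. Unbound RNA was separated by 8% native PAGE and sequenced. Relative association constants came from read-count changes of each RNA species compared with the control reaction, normalised to the cognate motif.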

| Binder | binding signal |
| --- | --- |
| B1 | 0.0699 KA relative to UGCAUGU |
| B2 | 0.0889 KA relative to UGCAUGU |
| B3 | 0.158 KA relative to UGCAUGU |
| B4 | 0.102 KA relative to UGCAUGU |
| B5 | 0.112 KA relative to UGCAUGU |
| B6 | 0.103 KA relative to UGCAUGU |
| B7 | 0.0932 KA relative to UGCAUGU |
| B8 | 0.0877 KA relative to UGCAUGU |
| B9 | 0.0519 KA relative to UGCAUGU |
| B10 | 0.137 KA relative to UGCAUGU |
| B11 | 0.0512 KA relative to UGCAUGU |
| B12 | 0.101 KA relative to UGCAUGU |
| B13 | 0.0916 KA relative to UGCAUGU |
| B14 | 0.118 KA relative to UGCAUGU |
| B15 | 0.0612 KA relative to UGCAUGU |
| B16 | 0.059 KA relative to UGCAUGU |

| Binder | binding signal |
| --- | --- |
| B17 | 0.104 KA relative to UGCAUGU |
| B18 | 0.0997 KA relative to UGCAUGU |
| B19 | 0.0874 KA relative to UGCAUGU |
| B20 | 0.0803 KA relative to UGCAUGU |
| B21 | 0.0965 KA relative to UGCAUGU |
| B22 | 0.094 KA relative to UGCAUGU |
| B23 | 0.115 KA relative to UGCAUGU |
| B24 | 0.122 KA relative to UGCAUGU |
| B25 | 0.128 KA relative to UGCAUGU |
| B26 | 0.144 KA relative to UGCAUGU |
| B27 | 0.0724 KA relative to UGCAUGU |
| B28 | 0.169 KA relative to UGCAUGU |
| B29 | 0.066 KA relative to UGCAUGU |
| B30 | 0.119 KA relative to UGCAUGU |
| B31 | 0.104 KA relative to UGCAUGU |

From article PMC9911399, “Two distinct binding modes provide the RNA-binding protein RbFox with extraordinary sequence specificity”
